Test results reported in PubChem BioAssay AID894 (National Center for Advancing Translational Sciences (NCATS), 2007).
Where “and” joins values, the source holds several entries; their conditions need not be identical. Equal entries are not always repeated. Hit rate of the full screen: of about 150,000 compounds, about 6,500 (4.3%) were called active. The inconclusive results got no clear call from the source; some entries with a clear call stand among them for comparison. Calls follow the shape of the dose curve; as a rule, active = well fitted inhibition curve with a large enough effect (not every such curve was filed as active); inconclusive = small, poorly fitted or top-dose-only effect, or another doubt; inactive = no such curve, though single readings can be large or run the other way. Potencies of inconclusive entries are doubtful fits and often do not repeat.

These compounds were tested against 15-hydroxyprostaglandin dehydrogenase [NAD(+)] (Homo sapiens) (UniProt P15428) (assay: qHTS Assay for Inhibitors of HPGD (15-Hydroxyprostaglandin Dehydrogenase)). Details: purified HPGD, NADH fluorescence kinetic, PGE2 substrate; activity change, negative = inhibition: hits give low values.
In short: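 NADH formation kinetics: reaction with 30 uM PGE2 and 1 mM NAD+ (final), 20 nM enzyme, Tris-HCl pH 8 with Tween 20, after 15 min compound preincubation at room temperature. Fluorescence change, last versus first of five reads.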
% is scaled to controls: 0 for no effect and ±100 for the full control effect; potency is read from the fitted curve at half-maximal effect; tags tell the direction and shape of the fitted curve.

Chain of UniProt P15428 (P15428 whole entry, looked up): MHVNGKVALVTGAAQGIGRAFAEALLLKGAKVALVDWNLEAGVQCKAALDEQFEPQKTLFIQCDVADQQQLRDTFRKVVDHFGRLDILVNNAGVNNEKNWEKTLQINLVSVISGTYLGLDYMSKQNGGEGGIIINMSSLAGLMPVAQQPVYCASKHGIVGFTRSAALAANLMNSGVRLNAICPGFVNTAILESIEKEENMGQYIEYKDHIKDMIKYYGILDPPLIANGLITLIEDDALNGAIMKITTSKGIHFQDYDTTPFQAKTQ

How did the activity change, negative = inhibition turn out when `COC(=O)CC1c2ccccc2C(Cc2ccc(OC)cc2)C(C)N1C(=O)OC` (configuration not stated) was run?
Its activity change, negative = inhibition is inactive: -6.2%.

With `Cc1nc2ccccc2n2c(O)c(CC(=O)O)cc12` as the compound, how does the Potency read?
Its Potency is inconclusive: 31.6 µM [inhibitor, single point].

`O=c1cc(CSc2nc(NCc3ccccc3)c3ccccc3n2)nc2ccc(Cl)cn12` was tested. Which Potency did it give?
The Potency was inconclusive: 31.6 µM [inhibitor, single point].

For `Cc1cc(C)c(C#N)c(OCC(=O)c2ccccc2)n1`, which Potency is on record?
The Potency was active: 22.4 µM.

How did the Potency turn out when `CCOC(=O)CNC(=O)c1c(C)nn(-c2ccccc2)c1Cl` was run?
The Potency was inconclusive: 28.2 µM [inhibitor, single point].

Which Potency does the source give for `CCS(=O)(=O)n1nc(-c2ccco2)nc1SC` here?
Its Potency is active: 8.91 µM.

Which Potency does the source give for `COc1ccc(OC)c(-c2csc(NC(=O)c3ccc(OCC4CCCO4)cc3)n2)c1` (configuration not stated) here?
Its Potency is inconclusive: 35.5 µM [inhibitor, partial curve].

With `CC1(CCc2ccccc2)NC(=S)N(c2ccccc2)N1` (configuration not stated) as the compound, how does the Potency read?
Its Potency is active: 39.8 µM.

How did the Potency turn out when `CCCCOc1ccc(C(=O)N2CCCC2)cc1` was run?
Its Potency is active: 2.24 µM.

With `C=CCc1ccc(OCCOCCNCCCC)c(OC)c1` as the compound, how does the activity change, negative = inhibition read?
The activity change, negative = inhibition was inactive: -5.88%.

With `Cc1cc(Cl)ccc1N=C1N=C(N)c2ccccc21` as the compound, how does the activity change, negative = inhibition read?
The activity change, negative = inhibition was inactive: -9.42%.

With `CC(CC(=O)Nc1cccc(Cl)c1)c1ccccc1` (configuration not stated) as the compound, how does the Potency read?
The Potency was inconclusive: 20 µM [inhibitor, partial curve].

With `COc1ccc(C2CC(=O)N3CN(c4ccccc4F)CSC3=C2C#N)cc1OC` (configuration not stated) as the compound, how does the Potency read?
Its Potency is inconclusive: 39.8 µM [inhibitor, single point].

With `CCCC(=O)Nc1nc2nc(-c3ccccc3)cc(-c3ccccc3)n2n1` as the compound, how does the Potency read?
Its Potency is inconclusive: 31.6 µM [inhibitor, partial curve].

For `Cc1ccc(-c2nnc(-c3cccc(NC(=O)c4cccs4)c3)o2)cc1`, which Potency is on record?
The Potency was inconclusive: 39.8 µM [inhibitor, single point].

For `Cc1ccccc1Nc1nc(-c2ccccc2)c(C(=O)Nc2cccnc2)s1`, which Potency is on record?
Its Potency is inconclusive: 31.6 µM [inhibitor, single point].

For `CS(=O)(=O)Nc1ccccc1C(=O)NCc1ccco1`, which Potency is on record?
The Potency was inconclusive: 25.1 µM [inhibitor, single point].

`Cc1noc(C)c1C(=O)N1CCN(C(=O)c2sc3cc(Cl)ccc3c2Cl)CC1` was tested. Which activity change, negative = inhibition did it give?
Its activity change, negative = inhibition is inactive: -9.92%.

How did the activity change, negative = inhibition turn out when `CCCc1cc(OC)c2c(c1)OCO2` was run?
The activity change, negative = inhibition was inactive: -20.1%.

Which Potency does the source give for `CCc1ccc(-c2cc(C(=O)NCc3ccco3)c3ccccc3n2)s1` here?
Its Potency is inconclusive: 25.1 µM [inhibitor, partial curve].

With `Clc1ccc(Cn2ncc3c(NCc4ccccc4)ncnc32)c(Cl)c1` as the compound, how does the Potency read?
The Potency was active: 20 µM.

Which Potency does the source give for `CCCOc1ccc(OCCSc2nnc(N)s2)cc1` here?
The Potency was active: 5.01 µM.

`Cc1ccccc1NC(=O)C1CCCN1S(=O)(=O)c1ccc2c(c1)n(C)c(=O)c(=O)n2C` (configuration not stated) was tested. Which Potency did it give?
The Potency was inconclusive: 15.8 µM [inhibitor, single point].

With `COCCOC(=O)c1cc(C(=O)c2cc(F)ccc2O)coc1=N` as the compound, how does the Potency read?
Its Potency is inconclusive: 31.6 µM [inhibitor, partial curve].

How did the Potency turn out when `COc1cccc(CNC(=O)c2cc3oc4ccccc4c3n2C)c1OC` was run?
Its Potency is inconclusive: 31.6 µM [inhibitor, partial curve].

Which Potency does the source give for `Cc1cc(=O)[nH]c(SCc2cccc(Br)c2)n1` here?
Its Potency is active: 14.1 µM.

For `C/C(Cl)=C/Cn1c(SCCN2CCOCC2)nc2c1c(=O)[nH]c(=O)n2C`, which Potency is on record?
The Potency was inconclusive: 20 µM [inhibitor, partial curve].

How did the activity change, negative = inhibition turn out when `COC(=O)N1[C@H](C)C=C[C@]1(Cc1ccccc1)C(=O)NCc1ccc(C)o1` was run?
Its activity change, negative = inhibition is inactive: -20.3%.

`Cc1ccc2cc(C#N)c(NCCNC(=O)C3CCC3)nc2c1C` was tested. Which Potency did it give?
The Potency was inconclusive: 22.4 µM [inhibitor, partial curve].

How did the Potency turn out when `COc1cc(-c2nc3ccccn3c2NCC2CCCO2)ccc1O` (configuration not stated) was run?
Its Potency is inconclusive: 28.2 µM [inhibitor, partial curve].

With `COc1ccc(NC(=O)CN2CCN(S(=O)(=O)c3ccc(C(C)C)cc3)CC2)cc1OC` as the compound, how does the activity change, negative = inhibition read?
Its activity change, negative = inhibition is inactive: -7.49%.

Which activity change, negative = inhibition does the source give for `CCn1nc(C)c(C(=O)Nc2cc(Oc3ccc(Cl)cc3)cc([N+](=O)[O-])c2)c1C` here?
Its activity change, negative = inhibition is inactive: -20.1%.

For `Nc1nc(-c2nc3ccccc3[nH]2)cs1`, which activity change, negative = inhibition is on record?
Its activity change, negative = inhibition is inactive: -10.2%.

Which Potency does the source give for `C=CCOc1ccc(CNn2cn[nH]c2=S)cc1` here?
The Potency was inconclusive: 17.8 µM [inhibitor, partial curve].

With `FC(F)(F)c1cccc(NC(=S)NCC2COc3ccccc3O2)c1` (configuration not stated) as the compound, how does the Potency read?
Its Potency is inconclusive: 35.5 µM [inhibitor, partial curve].

For `Cc1cc(C(F)(F)F)nn1Cc1ccc(C(=O)NCc2ccco2)o1`, which Potency is on record?
The Potency was inconclusive: 39.8 µM [inhibitor, partial curve, poor fit].

For `FC(F)(F)c1ccc(CN2C[C@@H]3C(c4ccc(Cl)nc4)C4(c5cccnc5)CC3(C4)[C@H]2c2ccccc2)cc1` (some centres not stated), which activity change, negative = inhibition is on record?
The activity change, negative = inhibition was inactive: -18.2%.

How did the Potency turn out when `Cc1ccc(/C=C/C(=O)Nc2ccc([N+](=O)[O-])c(NC(=O)/C=C/c3ccc(C)o3)c2)o1` was run?
The Potency was inconclusive: 28.2 µM [inhibitor, single point].

`Cc1ccc2nc(-c3sc4nc(C)ccc4c3N)[nH]c2c1` was tested. Which Potency did it give?
Its Potency is inconclusive: 28.2 µM [inhibitor, partial curve].

`OC[C@@H]1[C@@H](c2ccc(Cl)cc2)C(c2ccc(F)cc2)=NN1c1ccccc1` was tested. Which Potency did it give?
The Potency was inconclusive: 31.6 µM [inhibitor, partial curve].

For `COC(=O)c1ccccc1NC(=O)c1ccc(-c2ccc(Br)cc2)o1`, which Potency is on record?
Its Potency is inconclusive: 31.6 µM [inhibitor, partial curve].

For `COc1ccc(O)c(C(=O)c2cnc3onc(C)c3c2)c1`, which Potency is on record?
The Potency was inconclusive: 12.6 µM [inhibitor, partial curve].

With `CCOC(=O)c1[nH]c2ccc(OC)cc2c1NC(=O)CN1CCSCC1` as the compound, how does the Potency read?
Its Potency is inconclusive: 31.6 µM [inhibitor, partial curve].

With `COCCCNC(=O)c1ccc(-n2nc(C(F)(F)F)cc2-c2cccs2)cc1` as the compound, how does the Potency read?
Its Potency is active: 14.1 µM.

`O=C(Nc1ccc(N2CCCCC2)c(Cl)c1)c1cccnc1` was tested. Which activity change, negative = inhibition did it give?
Its activity change, negative = inhibition is inactive: -12.6%.

How did the Potency turn out when `N#C/C(=C\c1cccc(OC(=O)c2cccs2)c1)C(N)=O` was run?
Its Potency is active: 25.1 µM.

How did the Potency turn out when `CCn1c2ccccc2c2nnc(SCC(=O)NC3CCS(=O)(=O)C3)nc21` (configuration not stated) was run?
The Potency was active: 31.6 µM.

`Cc1ccc(-c2nc3ncccc3o2)cc1NC(=O)Cc1ccc(Cl)cc1` was tested. Which Potency did it give?
The Potency was inconclusive: 31.6 µM [inhibitor, partial curve].

Which activity change, negative = inhibition does the source give for `O=C(CSc1nc2ccccc2s1)N/N=C/c1ccco1` here?
The activity change, negative = inhibition was inactive: -4.87%.

`CCCCC(=O)Nc1c(C)cc(C)cc1Cl` was tested. Which Potency did it give?
Its Potency is active: 35.5 µM.

With `COc1ccc2nc3sc(C(=O)N4CCN(C)CC4)cc3cc2c1` as the compound, how does the Potency read?
Its Potency is inconclusive: 12.6 µM [inhibitor, partial curve].

How did the Potency turn out when `CC(C)(C)N1C(=O)Cc2c1nc(N)c1c(N)nc(N3CCCCC3CO)c(C#N)c21` (configuration not stated) was run?
Its Potency is inconclusive: 28.2 µM [inhibitor, partial curve].

With `Cc1ccc(N2C(=O)c3ccc(C(=O)N4CCN(c5ccccc5F)CC4)cc3C2=O)cc1` as the compound, how does the activity change, negative = inhibition read?
The activity change, negative = inhibition was inactive: -2.33%.

With `COc1ccc(C(CC(=O)Nc2cc([N+](=O)[O-])ccc2OC)c2ccccc2)cc1` (configuration not stated) as the compound, how does the activity change, negative = inhibition read?
Its activity change, negative = inhibition is inactive: -27.6%.

How did the Potency turn out when `CNc1nc(Sc2ccccc2)cc(C(F)(F)F)n1` was run?
Its Potency is active: 35.5 µM.

`Cc1cnc(-c2nnc(N(C)C(=O)C3CCOC3)s2)cn1` (configuration not stated) was tested. Which Potency did it give?
Its Potency is inconclusive: 20 µM [inhibitor, partial curve].

Which Potency does the source give for `COc1cc2nc(N3CCN(C(=O)C4CCCO4)CC3)nc(N)c2cc1OC` (configuration not stated) here?
The Potency was inconclusive: 35.5 µM [inhibitor, partial curve] and inconclusive: 28.2 µM [inhibitor, partial curve] and inconclusive: 25.1 µM [inhibitor, partial curve].

For `CCOC(=O)N1CCN(c2ccc(C(=O)c3cccc(F)c3)cc2)CC1`, which Potency is on record?
Its Potency is inconclusive: 22.4 µM [inhibitor, partial curve].

Which Potency does the source give for `Cc1ccccc1OCc1nc(-c2ccc(NC(=O)c3ccco3)cc2)no1` here?
Its Potency is inconclusive: 35.5 µM [inhibitor, single point].

With `CCCn1nc(NC(=O)c2ccccn2)c2cc3cc(C)ccc3nc21` as the compound, how does the Potency read?
Its Potency is inconclusive: 14.1 µM [inhibitor, partial curve].

With `Cc1ccc(C(C2=C(O)CC(C)(C)CC2=O)C2C(=O)CC(C)(C)CC2=O)s1` (configuration not stated) as the compound, how does the Potency read?
Its Potency is active: 3.16 µM.

For `COc1cccc(NC(=O)C2CC(=O)n3cnnc3S2)c1` (configuration not stated), which Potency is on record?
Its Potency is active: 15.8 µM.

For `Cc1cccc(NC(=O)c2ccc3ccccc3n2)n1`, which Potency is on record?
Its Potency is inconclusive: 10 µM [inhibitor, partial curve].

With `COC(=O)c1nc2nc(-c3cccs3)cc(C(F)(F)F)n2n1` as the compound, how does the Potency read?
Its Potency is inconclusive: 25.1 µM [inhibitor, partial curve].

`O=C(NCC1CCCO1)c1cccs1` (configuration not stated) was tested. Which Potency did it give?
Its Potency is inconclusive: 25.1 µM [inhibitor, partial curve].

Which Potency does the source give for `Nc1c(C(=O)NCc2ccc3c(c2)OCO3)c2nc3ccccc3nc2n1CCCN1CCOCC1` here?
The Potency was inconclusive: 11.2 µM [inhibitor, partial curve].

For `CCCN1CCN(C(c2cc3cc(OCC)ccc3[nH]c2=O)c2nnnn2C2CCCCC2)CC1` (configuration not stated), which Potency is on record?
The Potency was inconclusive: 31.6 µM [inhibitor, partial curve].

With `C/C=C/c1ccc(OCCOc2cc(C=O)ccc2OC)c(OC)c1` as the compound, how does the activity change, negative = inhibition read?
The activity change, negative = inhibition was inactive: -15.8%.

`O=C(c1ccc(C(=O)N2CCOCC2)s1)N1CCOCC1` was tested. Which Potency did it give?
The Potency was active: 20 µM.

Which activity change, negative = inhibition does the source give for `Cc1cc(C(=O)CN2C(=O)CCC2=O)c(C)n1Cc1ccccc1` here?
Its activity change, negative = inhibition is inactive: -9.77%.

`CC1=CC(C)(C)N(C(=O)CSc2nnc(-c3ccc(C)cc3)o2)c2ccc(C)cc21` was tested. Which activity change, negative = inhibition did it give?
Its activity change, negative = inhibition is inactive: -8.55%.

Which Potency does the source give for `Oc1ccc(O)cc1` here?
The Potency was active: 10 µM and active: 5.62 µM and active: 7.94 µM.
